According to PMC9911399, “Two distinct binding modes provide the RNA-binding protein RbFox with extraordinary sequence specificity”:
Changes are numbered by the printed parent chain; changes in the protein carry UniProt numbers. Some of the results follow.

T1: RBFOX1 RRM (Homo sapiens, UniProt Q9NWB1 109-208)
T1 sequence: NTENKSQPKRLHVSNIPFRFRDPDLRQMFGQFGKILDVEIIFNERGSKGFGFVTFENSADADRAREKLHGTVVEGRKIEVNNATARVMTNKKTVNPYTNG

B1: ACUAUCC (DNA:RNA)
RNA: GGGAGACCGGAAUUCAGAUUGUCCACUAUCCUUAAAUCCCGUCGUAGCCACCA
DNA 1: CAATCTGAATTCCGGTCTCCC
DNA 2: TGGTGGCTACGACGGGATT
B2: GGGUUGU (DNA:RNA)
RNA: B1 RNA with A25G, C26G, U27G, A28U, C30G, C31U
DNA 1: CAATCTGAATTCCGGTCTCCC
DNA 2: TGGTGGCTACGACGGGATT
B3: UGUUCAG (DNA:RNA)
RNA: B1 RNA with A25U, C26G, A28U, U29C, C30A, C31G
DNA 1: CAATCTGAATTCCGGTCTCCC
DNA 2: TGGTGGCTACGACGGGATT
B4: CGGUGUU (DNA:RNA)
RNA: GGGAGACCGGAAUUCAGAUUGUCCCGGUGUUUUAAAUCCCGUCGUAGCCACCA
DNA 1: CAATCTGAATTCCGGTCTCCC
DNA 2: TGGTGGCTACGACGGGATT
B5: AUUUAUC (DNA:RNA)
RNA: B1 RNA with C26U, A28U, U29A, C30U
DNA 1: CAATCTGAATTCCGGTCTCCC
DNA 2: TGGTGGCTACGACGGGATT
B6: GACCGAC (DNA:RNA)
RNA: B1 RNA with A25G, C26A, U27C, A28C, U29G, C30A
DNA 1: CAATCTGAATTCCGGTCTCCC
DNA 2: TGGTGGCTACGACGGGATT
B7: CAGGGCG (DNA:RNA)
RNA: B4 RNA with G26A, U28G, U30C, U31G
DNA 1: CAATCTGAATTCCGGTCTCCC
DNA 2: TGGTGGCTACGACGGGATT
B8: CGCAGCC (DNA:RNA)
RNA: B1 RNA with A25C, C26G, U27C, U29G
DNA 1: CAATCTGAATTCCGGTCTCCC
DNA 2: TGGTGGCTACGACGGGATT
B9: ACCUUGG (DNA:RNA)
RNA: B1 RNA with U27C, A28U, C30G, C31G
DNA 1: CAATCTGAATTCCGGTCTCCC
DNA 2: TGGTGGCTACGACGGGATT
B10: UAUCGCA (DNA:RNA)
RNA: B1 RNA with A25U, C26A, A28C, U29G, C31A
DNA 1: CAATCTGAATTCCGGTCTCCC
DNA 2: TGGTGGCTACGACGGGATT
B11: CAGGUGG (DNA:RNA)
RNA: B4 RNA with G26A, U28G, G29U, U30G, U31G
DNA 1: CAATCTGAATTCCGGTCTCCC
DNA 2: TGGTGGCTACGACGGGATT
B12: CUCUUAU (DNA:RNA)
RNA: B4 RNA with G26U, G27C, G29U, U30A
DNA 1: CAATCTGAATTCCGGTCTCCC
DNA 2: TGGTGGCTACGACGGGATT
B13: GUCCCCC (DNA:RNA)
RNA: B1 RNA with A25G, C26U, U27C, A28C, U29C
DNA 1: CAATCTGAATTCCGGTCTCCC
DNA 2: TGGTGGCTACGACGGGATT
B14: AAGGUGG (DNA:RNA)
RNA: B1 RNA with C26A, U27G, A28G, C30G, C31G
DNA 1: CAATCTGAATTCCGGTCTCCC
DNA 2: TGGTGGCTACGACGGGATT
B15: ACUGAGG (DNA:RNA)
RNA: B1 RNA with A28G, U29A, C30G, C31G
DNA 1: CAATCTGAATTCCGGTCTCCC
DNA 2: TGGTGGCTACGACGGGATT
B16: CUCGGGA (DNA:RNA)
RNA: B4 RNA with G26U, G27C, U28G, U30G, U31A
DNA 1: CAATCTGAATTCCGGTCTCCC
DNA 2: TGGTGGCTACGACGGGATT
B17: ACCUGUA (DNA:RNA)
RNA: B4 RNA with C25A, G26C, G27C, U31A
DNA 1: CAATCTGAATTCCGGTCTCCC
DNA 2: TGGTGGCTACGACGGGATT
B18: UCCAAAU (DNA:RNA)
RNA: B1 RNA with A25U, U27C, U29A, C30A, C31U
DNA 1: CAATCTGAATTCCGGTCTCCC
DNA 2: TGGTGGCTACGACGGGATT
B19: GCCUGCC (DNA:RNA)
RNA: B1 RNA with A25G, U27C, A28U, U29G
DNA 1: CAATCTGAATTCCGGTCTCCC
DNA 2: TGGTGGCTACGACGGGATT
B20: UAUAAGC (DNA:RNA)
RNA: B1 RNA with A25U, C26A, U29A, C30G
DNA 1: CAATCTGAATTCCGGTCTCCC
DNA 2: TGGTGGCTACGACGGGATT
B21: CGCAGAU (DNA:RNA)
RNA: B4 RNA with G27C, U28A, U30A
DNA 1: CAATCTGAATTCCGGTCTCCC
DNA 2: TGGTGGCTACGACGGGATT
B22: CCGUUCA (DNA:RNA)
RNA: B1 RNA with A25C, U27G, A28U, C31A
DNA 1: CAATCTGAATTCCGGTCTCCC
DNA 2: TGGTGGCTACGACGGGATT
B23: CAGAGCA (DNA:RNA)
RNA: B4 RNA with G26A, U28A, U30C, U31A
DNA 1: CAATCTGAATTCCGGTCTCCC
DNA 2: TGGTGGCTACGACGGGATT
B24: CUGAACU (DNA:RNA)
RNA: B4 RNA with G26U, U28A, G29A, U30C
DNA 1: CAATCTGAATTCCGGTCTCCC
DNA 2: TGGTGGCTACGACGGGATT
B25: AUAUGCC (DNA:RNA)
RNA: B1 RNA with C26U, U27A, A28U, U29G
DNA 1: CAATCTGAATTCCGGTCTCCC
DNA 2: TGGTGGCTACGACGGGATT
B26: UAGGCAG (DNA:RNA)
RNA: B4 RNA with C25U, G26A, U28G, G29C, U30A, U31G
DNA 1: CAATCTGAATTCCGGTCTCCC
DNA 2: TGGTGGCTACGACGGGATT
B27: UACUACA (DNA:RNA)
RNA: B1 RNA with A25U, C26A, U27C, A28U, U29A, C31A
DNA 1: CAATCTGAATTCCGGTCTCCC
DNA 2: TGGTGGCTACGACGGGATT
B28: CCUUACG (DNA:RNA)
RNA: B1 RNA with A25C, A28U, U29A, C31G
DNA 1: CAATCTGAATTCCGGTCTCCC
DNA 2: TGGTGGCTACGACGGGATT
B29: GGUACAA (DNA:RNA)
RNA: B1 RNA with A25G, C26G, U29C, C30A, C31A
DNA 1: CAATCTGAATTCCGGTCTCCC
DNA 2: TGGTGGCTACGACGGGATT
B30: AACACCA (DNA:RNA)
RNA: B1 RNA with C26A, U27C, U29C, C31A
DNA 1: CAATCTGAATTCCGGTCTCCC
DNA 2: TGGTGGCTACGACGGGATT
B31: UGUUUAG (DNA:RNA)
RNA: B1 RNA with A25U, C26G, A28U, C30A, C31G
DNA 1: CAATCTGAATTCCGGTCTCCC
DNA 2: TGGTGGCTACGACGGGATT

target: T1, RBFOX1 RRM; test: EMSA; HiTS-Eq, 1 nM pool, 10 min; buffer printed only for the single-RNA assays: 10 mM Tris pH 7.5, 150 mM NaCl, 3.4 mM EDTA, 0.001% NP-40, 30 C; conditions: tags: His6 N-terminal (pET28a); label: 5' 32P
In short: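 Purified RbFox RRM (wild type or mutant) was equilibrated for 10 min in 50 µL with 1 nM of a 5′-radiolabelled pool of RNA with 7 randomized nucleotides, its flanks annealed to DNA oligonucleotides, across increasing protein concentrations. Free RNA was separated by 8% native PAGE, excised, reverse-transcribed, PCR-barcoded and sequenced on an Illumina HiSeq 2500. Relative association constants came from read-count changes of each variant against the control reaction, normalised to the cognate motif.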

Which binding signal does the source give for B1 here?
Its binding signal is 0.00194 KA relative to UGCAUGU.

How did the binding signal turn out when B2 was run?
Its binding signal is 0.0284 KA relative to UGCAUGU.

B3 was tested. Which binding signal did it give?
Its binding signal is 0.0191 KA relative to UGCAUGU.

B4 was tested. Which binding signal did it give?
The binding signal was 0.0192 KA relative to UGCAUGU.

With B5 as the binder, how does the binding signal read?
The binding signal was 0.00213 KA relative to UGCAUGU.

How did the binding signal turn out when B6 was run?
The binding signal was 0.015 KA relative to UGCAUGU.

With B7 as the binder, how does the binding signal read?
The binding signal was 0.0128 KA relative to UGCAUGU.

For B8, which binding signal is on record?
Its binding signal is 0.00522 KA relative to UGCAUGU.

For B9, which binding signal is on record?
The binding signal was 0.00664 KA relative to UGCAUGU.

With B10 as the binder, how does the binding signal read?
The binding signal was 0.02 KA relative to UGCAUGU.

Which binding signal does the source give for B11 here?
Its binding signal is 0.00878 KA relative to UGCAUGU.

With B12 as the binder, how does the binding signal read?
Its binding signal is 0.00198 KA relative to UGCAUGU.

How did the binding signal turn out when B13 was run?
Its binding signal is 0.0163 KA relative to UGCAUGU.

Which binding signal does the source give for B14 here?
Its binding signal is 0.0131 KA relative to UGCAUGU.

With B15 as the binder, how does the binding signal read?
The binding signal was 0.0126 KA relative to UGCAUGU.

B16 was tested. Which binding signal did it give?
Its binding signal is 0.00233 KA relative to UGCAUGU.

For B17, which binding signal is on record?
The binding signal was 0.00505 KA relative to UGCAUGU.

How did the binding signal turn out when B18 was run?
The binding signal was 0.00115 KA relative to UGCAUGU.

Which binding signal does the source give for B19 here?
The binding signal was 0.0261 KA relative to UGCAUGU.

Which binding signal does the source give for B20 here?
The binding signal was 0.00937 KA relative to UGCAUGU.

Which binding signal does the source give for B21 here?
The binding signal was 0.00891 KA relative to UGCAUGU.

Which binding signal does the source give for B22 here?
The binding signal was 0.00724 KA relative to UGCAUGU.

With B23 as the binder, how does the binding signal read?
Its binding signal is 0.00837 KA relative to UGCAUGU.

How did the binding signal turn out when B24 was run?
Its binding signal is 0.00869 KA relative to UGCAUGU.

With B25 as the binder, how does the binding signal read?
The binding signal was 0.00682 KA relative to UGCAUGU.

B26 was tested. Which binding signal did it give?
The binding signal was 0.0165 KA relative to UGCAUGU.

For B27, which binding signal is on record?
Its binding signal is 0.00169 KA relative to UGCAUGU.

Which binding signal does the source give for B28 here?
Its binding signal is 0.00237 KA relative to UGCAUGU.

How did the binding signal turn out when B29 was run?
The binding signal was 0.00136 KA relative to UGCAUGU.

For B30, which binding signal is on record?
The binding signal was 0.000667 KA relative to UGCAUGU.

How did the binding signal turn out when B31 was run?
Its binding signal is 0.0202 KA relative to UGCAUGU.
